Measured values published in PMC6919601, “Identification of Plasmodium dipeptidyl aminopeptidase allosteric inhibitors by high throughput screening” (PLoS ONE, 2019).
Out of some 110,000 compounds screened, about 230 (0.21%) showed an effect of 50% or more. This is one part of the list.

The compounds below were run against DPAP1 (Plasmodium falciparum, UniProt Q8IIJ9) (assay: primary screen, percent inhibition; read by cleavage of a fluorogenic dipeptide substrate; higher = more effect of the substance).
Sequence of DPAP1 (Q8IIJ9 whole entry, looked up): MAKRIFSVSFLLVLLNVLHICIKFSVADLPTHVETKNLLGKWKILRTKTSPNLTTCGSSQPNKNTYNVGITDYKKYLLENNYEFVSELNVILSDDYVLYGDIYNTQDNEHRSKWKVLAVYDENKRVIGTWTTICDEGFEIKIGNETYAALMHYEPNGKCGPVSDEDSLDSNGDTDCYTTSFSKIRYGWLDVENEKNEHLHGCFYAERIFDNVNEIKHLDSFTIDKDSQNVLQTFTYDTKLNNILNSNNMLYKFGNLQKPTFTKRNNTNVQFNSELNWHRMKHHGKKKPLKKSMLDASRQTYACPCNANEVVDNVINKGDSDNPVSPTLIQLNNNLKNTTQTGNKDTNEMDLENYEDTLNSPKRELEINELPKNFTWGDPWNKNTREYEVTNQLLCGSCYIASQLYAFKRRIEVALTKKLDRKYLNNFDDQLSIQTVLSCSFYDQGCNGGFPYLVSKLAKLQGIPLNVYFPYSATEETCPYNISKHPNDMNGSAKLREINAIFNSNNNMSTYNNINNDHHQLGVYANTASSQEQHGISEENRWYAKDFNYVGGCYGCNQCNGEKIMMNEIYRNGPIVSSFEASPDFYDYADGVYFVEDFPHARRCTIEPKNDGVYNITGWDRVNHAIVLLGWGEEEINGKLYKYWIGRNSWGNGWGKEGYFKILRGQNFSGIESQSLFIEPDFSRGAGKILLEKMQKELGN
Design: species or system P. falciparum D10 trophozoite lysates; single well
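Also: 30 min substrate incubation versus DMSO and 10 µM JCP410 controls.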

Compound	% Inhibition @ 10 uM
CN(C)/C=C/C=C1\CC/C(=C\C=C\N(C)C)C1=O	3.25%
COc1cc2c(C(=O)NCC3CCCO3)cn(CC(C)C)c(=O)c2cc1OC (stereo not shown)	-2.59%
NC(=O)C(=O)c1cn(Cc2ccccc2)c2ccccc12	7.51%
CCCOc1ccc(CNC(=O)Cn2nc(C)n3cccc3c2=O)cc1	-4.95%
O=C(NCc1ccc(Cl)cc1)C1CCCN(S(=O)(=O)c2ccc3nc(O)ccc3c2)C1 (stereo not shown)	-3.73%
CCCCSC(CC(=O)O)C(=O)O (stereo not shown)	-1.29%
C1=C(c2ccccc2)CCN(c2nc3ccccc3n3cnnc23)C1	20.7%
O=C(Nc1ccc(-c2ccccc2)cc1)c1ccncc1	-0.736%
FC(F)(F)c1ccc(CN2CCN(Cc3cccnc3)CC2)cc1	-3.13%
FC(F)Oc1ccc(C2=CC(c3cccc(Cl)c3)n3ncnc3N2)cc1 (stereo not shown)	-1.62%
CCn1c(C(=O)O)cc2oc3ccccc3c21	-3.34%
CC(C)CCNC(=O)c1cc(-c2ccncc2)nc2ccc(S(=O)(=O)N3CCC(C)CC3)cc12	2.35%
Cc1ccc(Nc2nc(-c3ccc(F)cc3)cs2)cc1C	-5.94%
c1ccc2nc3c(nc2c1)c1ccccc1n3CN1CCCCC1	-8.7%
CN1CCCN(Cc2coc3ccccc3c2=O)CC1	-1.07%
Cn1c(=O)c(C(=O)c2ccc(Cl)cc2)c(O)c2ccccc21	-1.24%
CCCO/C(O)=C1\C(C)=NC2=C(C(=O)CC(c3ccccc3OC)C2)C1c1coc2ccccc2c1=O (stereo not shown)	2.09%
N#CCNC(=O)C(CC1CCCCC1)C(=O)NCCc1cccs1 (stereo not shown)	-5.21%
CCN(C(=O)c1c(OC)cccc1OC)c1ccccc1C	4.06%
O=C(c1ccccc1)C1(C(=O)c2ccccc2)CCCC1	-0.261%
Cc1cccc(Cn2c(C)c(C)c3cc(C(=O)NCCN4CCOCC4)ccc32)c1	-1.19%
Cc1cc(NC(=O)CCN2CCN(c3ccc(Cl)cc3)CC2)no1	-1.92%
CCOc1ccc(-n2cc(-c3ccccc3)c3c(N4CCOCC4)ncnc32)cc1	4.46%
C=CCOc1ccc(C2c3c(oc4cc(C)c(C)cc4c3=O)C(=O)N2CCOC)cc1OC (stereo not shown)	-2.91%
C=CCNC(=O)CN(Cc1ccccc1)S(=O)(=O)c1ccc(Cl)cc1	3.17%

Compound	% Inhibition @ 10 uM
Cc1c(C(=O)NCCc2ccsc2)sc2nc3n(c(=O)c12)CCCCC3	-1.97%
CCCC(NC(=O)CCc1c(C)nc2c(c1C)c(=O)n(C)c(=O)n2C)c1cccs1 (stereo not shown)	1.91%
O=C(Nc1nncs1)C(Cc1ccccc1)N1C(=O)C2C3C=CC(C3)C2C1=O (stereo not shown)	5.81%
N=C(Cc1cccs1)NOC(=O)C12CC3CC(CC(C3)C1)C2	3.72%
C=CCNC(=O)c1cc2c(=O)n3cc(C)ccc3nc2n(CCCOCC)c1=N	-1.47%
Cc1ccc(S(=O)(=O)Nc2ccccc2OC(F)(F)C(F)C(F)(F)F)cc1 (stereo not shown)	-4.61%
O=C(COc1ccc(/C=c2/sc3n(c2=O)CCN=3)cc1)Nc1ccccc1Cl	-2.8%
CC(C)Cn1c(=O)c2sccc2n2c(CCCC(=O)NCc3ccc4c(c3)OCO4)nnc12	-0.759%
COCC(=O)NCCc1nc(-c2ccccc2)cs1	2.17%
Fc1ccccc1Oc1nc(N2CCOCC2)nc(N2CCOCC2)n1	2.99%
O=C(Nc1ccc(Cl)c2c1C(=O)c1ccccc1C2=O)c1ccc([N+](=O)[O-])cc1Cl	0.98%
Clc1nc(NCc2ccccc2)nc(N2CCCCC2)n1	-0.856%
N=C(NOC(=O)COc1ccccc1)c1cccnc1	-5.08%
Cc1cc2oc(C(=O)N(Cc3ccccc3)c3ccccn3)cc(=O)c2cc1C	-1.47%
CCN(CC)c1nc(Nc2ccc(OC)cc2)nc(Nc2ccc(OC)cc2)n1	-4.35%
O=C1CC(C(F)(F)C(F)F)=Nc2ccccc2N1	4.12%
O=C1NCCc2c1[nH]c1ccc(C#Cc3ccccc3)cc21	1.54%
CNC(=O)CCc1nc(-c2ccccc2C)no1	0.366%
O=C(CCCN1C(=O)c2ccccc2C1=O)Nc1ccccc1	-1.76%
Cc1cccc(N/C=C2/C(=O)NC(=O)N(c3cccc(Cl)c3)C2=O)c1	-2.8%
O=C(NCCN1CCN(C(=O)c2ccco2)CC1)C(=O)NCc1ccccc1	5.52%
CCOc1ccccc1NS(=O)(=O)c1ccc(OC)c(Cl)c1Cl	4.61%
CN(C)CCCN(CCCN(C)C)Cc1ccccc1[N+](=O)[O-]	3.24%
Cc1nnc2sc(NC(=O)c3ccc(OCC(C)C)cc3)nn12	3.33%
CCCCCC(=O)Nc1nnc(Cc2ccc(OC)c(OC)c2)s1	0.997%

Compound	% Inhibition @ 10 uM
O=c1oc2ccc3ccccc3c2cc1-c1nc(-c2cccs2)no1	1.35%
CCc1ccc(S(=O)(=O)c2nnn3c2nc(NCC2CCCO2)c2cc(Cl)ccc23)cc1 (stereo not shown)	-3.08%
CCOc1ccccc1/C=C1/NC(=O)N(Cc2ccc(F)cc2)C1=O	-1.44%
Clc1ccccc1CN1CCc2c([nH]c3ccccc23)C1	-1.77%
COc1ccc2c(Cl)c(C(=O)O)sc2c1	3%
Cc1ccc(Oc2cc(-n3nc(C)cc3C)ncn2)cc1	1.57%
C#CCOC(=O)CNS(=O)(=O)c1c(C)cc(C)cc1C	2.86%
Cc1cccc(-c2[nH]c3c(C#N)cnn3c2NC2CCC(C)CC2)c1 (stereo not shown)	5.39%
CC1=CC2=NCC(O)CN2C=C1 (stereo not shown)	3.54%
Cc1cccn2c(=O)c(/C=C(\C#N)C(=O)NC3CCCC3)c(Oc3ccc(C(C)(C)C)cc3)nc12	0.101%
NC(=O)C1(N2CCCCC2)CCN(c2ncnc3[nH]cnc23)CC1	-3.24%
N#Cc1cnn2c(C(F)(F)F)cc(-c3ccc(Cl)cc3)nc12	-4.67%
CCOC(=O)c1c(C)[nH]c(C)c1S(=O)(=O)N1CCCC(C(=O)N2CCCC2)C1 (stereo not shown)	0.706%
Cc1ccc(C(=O)CSc2ncnc3ccccc23)o1	-2.28%
O=C(CCCn1sc2ccccc2c1=O)NC1CCCc2ccccc21 (stereo not shown)	-8.56%
COCCCN1COc2ccc3c(-c4ccccc4)cc(=O)oc3c2C1	-3.36%
Cc1ccc(CCNC(=O)CSCc2nc(-c3ccccc3C)oc2C)cc1	-2.85%
Cc1ccccc1NC(=O)c1ccc2c(c1)OCO2	4.53%
Cc1ccc(-n2nc(C)c(/C=N/c3ccc(Br)cn3)c2O)cc1C	1.76%
Cc1cc(CN2CCN(Cc3ccc4c(c3)OCO4)CC2)cs1	2.57%
CSC1=C(C#N)C(c2ccc(OCc3ccccc3)cc2)CC(=O)N1 (stereo not shown)	-2.35%
CC(C)NC(=O)C(=O)Nc1ccc(Cl)c(Cl)c1	-3.5%
CS/C(=C\C(=O)c1cccs1)CC(=O)c1cccs1	-2.98%
N#Cc1ccccc1NC(=O)CSc1nc2ccccc2[nH]1	9.94%
Cc1coc2cc3oc(=O)c(CCC(=O)NCc4ccc(F)cc4)c(C)c3cc12	-0.808%

Compound	% Inhibition @ 10 uM
CC(C)C(NC(=O)c1ccc(C23CC4CC(CC(C4)C2)C3)cc1)C(=O)NCCCN1CCOCC1 (stereo not shown)	0.505%
CCOC(=O)c1c(C)c(C(=O)OCC)n(C)c1C	-2.47%
CCOc1ccc(Cn2c(-c3nonc3NC(C)=O)nc3ccccc32)cc1OCC	-1.52%
O=C(Cc1ccccc1)NCn1nnc(-c2cccnc2)n1	-0.403%
COc1ccc(-c2onc(C)c2C)cc1S(=O)(=O)NCCc1cccs1	-11.4%
COc1ccc(CO/C(O)=C2\C(C)=NC3=C(C(=O)CC(C)(C)C3)C2c2coc3ccccc3c2=O)cc1 (stereo not shown)	6.12%
Cc1ccc(NC2=NS(=O)(=O)c3ccccc32)cc1	2.76%
Clc1ccc(C2=CC(c3ccccc3Cl)n3ncnc3N2)cc1 (stereo not shown)	0.131%
CC(=O)C1=NN(c2ccccc2)C(c2ccc3c(c2)OCO3)N1c1ccc(N2CCOCC2)cc1 (stereo not shown)	-5.46%
CC1CCN(S(=O)(=O)c2cccc3ccccc23)CC1	-3.74%
NC(=O)CNC(=O)C1(NC(=O)c2ccc(-c3ccc(S(=O)(=O)N4CCNCC4)s3)cc2)CCCCC1	-6.46%
O=C(CC1(O)C(=O)Nc2ccccc21)c1ccccc1 (stereo not shown)	2.76%
COc1ccccc1S(=O)Cc1ccc(C(=O)O)o1 (stereo not shown)	4.61%
C=C(C)[C@@H]1CC=C(CN2CCN(c3ccccn3)CC2)CC1	-5.42%
O=C1NC2CCCCC2NC1CC(=O)N1CCN(C(c2ccccc2)c2ccccc2)CC1 (stereo not shown)	0.627%
CCC(Sc1ncccc1Nc1ccccn1)C(=O)O (stereo not shown)	-2.45%
O=C(CCCOc1ccc(Cl)cc1Cl)N(C1CCCCC1)C1CCCCC1	2.47%
CC(C)(C)c1ccc(OCc2nnc(S)n2N)cc1	2.7%
COc1ccc(CNc2ncnc3c2cnn3-c2ccc(C)cc2C)cc1	-2.49%
CCCN(CCC)C(=O)CS(=O)Cc1nc(-c2ccccc2)oc1C (stereo not shown)	-1.89%
CC1(C)CC(=O)C(=Cc2cn(-c3ccccc3)nc2-c2cccs2)C(=O)C1	-1.93%
C=CCn1c(SCc2ccc(C(=O)OC)cc2)nc2ccccc2c1=O	2.55%
COc1cc(C(=O)Nc2cccc(-c3cn4ccc(C)cc4n3)c2)cc(OC)c1OC	3.21%
NC(=O)C1(N2CCCCC2)CCN(S(=O)(=O)Cc2ccccc2)CC1	-4.19%
CC(=O)Nc1ccc(Oc2nc(C)nc3sc4c(c23)CCCC4)cc1	-0.511%
